Experimental data reported in PubChem BioAssay AID1508623 (National Center for Advancing Translational Sciences (NCATS), 2021).
Among all 48,000 compounds or so, about 450 (0.94%) were called active. About 19% were inconclusive and are not listed. Calls follow the shape of the dose curve; as a rule, active = well fitted inhibition curve with a large enough effect; inconclusive = small, poorly fitted or top-dose-only effect; inactive = no such curve, though single readings can be large or run the other way. This is one part of the list.

Assay: Primary qHTS for Identification of Small Molecule Inhibitors of Huntingtin Promoter Activity; also: nearly all actives have a fitted effect of over 50% in size
Settings: HEK293 HTT promoter firefly luciferase reporter (activity 0% = vehicle and -100% = no light), 24 h; series mostly up to 57.5 µM; activity change, negative = inhibition: at the top concentration
Procedure, shortened: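 HEK293 cells carrying firefly luciferase reporters were seeded at 2,500 per well in Opti-MEM and cultured for 24 h. They were then treated with compounds at up to 57.5 uM final for 24 h at 37 degrees C before Dual-Glo luminescence readout.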

Activity change, negative = inhibition, inactive:
CCc1cc2c(cc3c(=O)n(CCCC(=O)NCc4ccccc4Cl)nc(CC)n32)s1 5.69%
COCCCNC(=O)CC(c1cc(OC)c(OC)c(OC)c1)N1Cc2ccccc2C1=O (configuration not stated) -3.35%
COc1ccc(NC(=O)C(Cc2ccccc2)NS(=O)(=O)c2ccc(Br)s2)cc1OC (configuration not stated) 9.87%
CCc1ccc(CNC(=O)c2nn(-c3ccc(C)c(C)c3)nc2CO)cc1 -3.82%
CCC(C)NC(=O)Cn1ncc2c(C)n(Cc3ccc(F)cc3)c(C)c2c1=O (configuration not stated) -4.65%
Cc1ccc2c(=O)cc(C(=O)Nc3sc4c(c3C(=O)NCc3ccco3)CCCC4)oc2c1C -8.02%
COC(=O)c1ccc(Cn2c(=O)cc(C)c3c(C)nn(C)c32)cc1 0%
Cc1cc(=O)[nH]c2nnc(SCC(=O)Nc3cc(C(F)(F)F)ccc3Cl)n12 -15.2%
CC(=O)CSc1nc(-c2ccccc2)[nH]c1S(=O)(=O)c1ccc(C)cc1 -16.9%
CCn1cc(C(=O)N2CCN(c3ccccc3)CC2)c(=O)c2cc(S(=O)(=O)N(C)C3CCCCC3)ccc21 -6.76%
CN(C)c1ccc(C(CNC(=O)COc2ccccc2)N2CCOCC2)cc1 (configuration not stated) -0.746%
Cc1cnc(NC(=O)C2=C(O)c3ccccc3S(=O)(=O)N2C)s1
O=C(CN1C(=O)CCSc2ccc(S(=O)(=O)N3CCCC3)cc21)Nc1cccc(Cl)c1 -23.9%
CCN(CC)S(=O)(=O)c1ccc2c(c1)N(CC(=O)NCc1ccccc1)C(=O)CS2 -17.4%
Cn1ncc2c(NCc3cccc(Cl)c3)ncnc21 -27.2%
COc1cc(Cl)c(C)cc1NC(=O)CSc1cc(=O)n(C)c2cc(Cl)ccc12 -6.48%
CCOc1ccc(NC(=O)Nc2c(C)n(C)n(-c3ccccc3)c2=O)cc1 13.8%
Cc1ccc(-c2noc(CCC(=O)Nc3ccc(F)cc3Cl)n2)cc1 0.448%
Cc1c(Cl)cccc1NC(=O)N1CCN(Cc2cc(=O)n3nc(-c4ccccc4F)sc3n2)CC1 -14.5%
Cc1nn(C)c2c1c(-c1ccccc1)cc(=O)n2Cc1ccccc1F -1.4%
COc1ccc(NC(=O)c2cccc(N3CCCS3(=O)=O)c2)cc1 33.2%
NC(=O)CSc1ncc2c(n1)-c1ccccc1N(Cc1ccccc1)S2(=O)=O -7.19%
Cc1cc(C)c2c(=O)cc(C(=O)NCCc3ccc(S(N)(=O)=O)cc3)oc2c1 -7.76%
COc1cccc(CNC(=O)Cn2c(=O)c3cccn3c3ccc(F)cc32)c1OC -1.11%
Cc1cccc(NC(=O)CSc2nnc(-c3cccs3)o2)c1 89.3%
Cc1cccc(NC(=O)C(c2ccccc2)N2Cc3ccccc3C2=O)c1C (configuration not stated) -14.4%
Cc1noc2ncnc(Nc3ccc(F)cc3)c12 -18.4%
COC(=O)c1sccc1S(=O)(=O)N(CC(=O)Nc1ccc(C)cc1)c1ccccc1 3.82%
Cc1cc(F)ccc1NC(=O)C1CCCN(c2nnc(-n3c(C)ccc3C)s2)C1 (configuration not stated) -29.3%
Cc1cc(C)cc(N2C(=O)CS(=O)(=O)C23C(=O)N(Cc2ccc(F)cc2)c2ccc(C)cc23)c1 (configuration not stated) -9.93%
COc1ccc(NC(=O)Cn2c(=O)nc(-c3ccccc3)c3ccccc32)cc1OC 7.93%
O=C(O)CCCc1ccccc1 10.5%
Cn1ncc(C(=O)N2CCN(c3ccccc3)CC2)c1C1CCN(C(=O)OC(C)(C)C)CC1 4.61%
Cc1ccc(CCNC(=O)NCc2noc3ccc(C)cc23)cc1 -16.3%
CCOc1ccc(-c2cc3nc(C4CCN(C(=O)OC(C)(C)C)CC4)c(C(=O)Nc4ccc(C(=O)OC)cc4)cn3n2)cc1 -8.96%
Cc1cc(C)n2nc(CNC(=O)c3cccc(Cl)c3)nc2n1 3.89%
Cc1ccc(NC(=O)COc2ccc3oc4c(c3c2)CCCC4)c(C)c1 -4.49%
COc1ccccc1N1CCN(C(=O)C2CCN(S(=O)(=O)c3cccc4nonc34)CC2)CC1 -2.12%
Nc1ncc(S(=O)(=O)NCc2ccccc2F)cn1 3.72%
CCOC(=O)c1c(C)n(-c2ccccc2)c2ccc(OC(=O)c3ccccc3Cl)cc12 -3.53%
CC(C)COc1ccc(C(=O)NCC2OCCc3ccccc32)cc1 (configuration not stated) 0.233%
CCOc1ccc(CCNC(=O)C2CCCN(c3nnc(C)c4c(C)n(-c5ccccc5)nc34)C2)cc1 (configuration not stated) -21.8%
NC(=O)c1c(NC(=O)c2noc3c2CCCC3)sc2c1CCCC2 83.9%
COc1ccc2oc(=O)c(C(=O)NCCc3c(C)[nH]c4c(C)cccc34)cc2c1 -2.63%
COC(=O)c1cc(NC(=O)CCS(=O)(=O)c2cc(Br)cc3c2N(C(=O)C2CC2)CC3)cc(C(=O)OC)c1 -7.86%
CCOc1cc2[nH]c(=O)n(CCC(=O)N3CCN(c4cccc(Cl)c4)CC3)c(=O)c2cc1OCC -14.6%
CCOC(=O)Cn1nc(C)c(NC(=O)COc2ccc(OC)cc2)c1C 12.3%
CCn1c2ccccc2c2cc(NC(=O)COc3cc(C)c(Cl)c(C)c3)ccc21 -5.78%
Cc1ccccc1C(=O)Nc1ccc(NC(=O)c2cccs2)cc1 -6.76%
CCOC(=O)c1c(C)oc2nc(C)nc(N3CCN(c4ccc(C)cc4C)CC3)c12 -6.04%
COc1ccc(C(=O)NCC(c2ccco2)S(=O)(=O)c2ccccc2)cc1 (configuration not stated) 2.25%
CC1(C)O[C@@H]2C[C@H]3[C@@H]4CCC5=CC(=O)C=C[C@]5(C)[C@@]4(F)[C@@H](O)C[C@]3(C)[C@]2(C(=O)CO)O1 0.143%
CCCN(C(=O)C1CCN(S(=O)(=O)c2c(C)noc2/C=C/c2ccc(C)cc2)CC1)c1ccccc1F -24.8%
CCN1CCOC(=O)C1CC(=O)Nc1ccccc1C(F)(F)F (configuration not stated) -0.717%
Cc1cccc(NC(=O)C2CCC(CNS(=O)(=O)c3ccc4c(c3)CCCC(=O)N4)CC2)c1C (configuration not stated) -30.1%
CC(=O)c1ccc(NC(=O)c2cccc(NC(=O)N3CCSc4ncccc43)c2)cc1 -18.8%
Cc1cc(C)cc(N(C)S(=O)(=O)c2nnc(NC(=O)COc3ccc(C)c(C)c3)s2)c1 -13.3%
CCOCCCNC(=O)c1c(NC(=O)Cc2coc3c(C)c(C)ccc23)sc2c1CCC2 -28.9%
CCCN(Cc1cc2cc(C)ccc2[nH]c1=O)C(=O)c1cccc(Cl)c1 -15.3%
COc1cc(OC)c(NC(=O)COc2ccccc2-c2nnc(-c3ccccc3)o2)cc1Cl -24%
CCCCCCCCCCCCCCCCCCO 10.7%
CCc1ccccc1Nc1nn2c(=O)c3ccc(C(=O)NCCc4ccccc4)cc3nc2s1 -27%
Cc1cccc(C(=O)NC2(C(F)(F)F)N=C(c3ccccc3)N(Cc3ccccc3)C2=O)c1 (configuration not stated) -1.3%
Cc1c(Cl)cccc1NC(=O)CN1C(=O)c2ccccc2Sc2ncccc21 -27.1%
Cc1ccc(-c2c(CN3CCN(c4cc(Cl)ccc4C)CC3)csc2C)cc1 -9.64%
CC(=O)N1CCc2c(sc3c2c(=O)n(-c2ccccc2Cl)c(=O)n3C)C1 17.2%
O=C(CSc1nc2ccccc2n1CC(=O)Nc1ccc(F)cc1F)Nc1ccc(F)cc1 -20.2%
CCOc1ccc2c(c1)c(=O)c(S(=O)(=O)c1ccc(C)cc1)cn2CC(=O)Nc1ccc(C)cc1 -23.4%
COc1ccc(-n2c(SCc3nc(-c4ccc(C)cc4)no3)nnc2-c2ccncc2)cc1 -28.1%
COCCCN1CCc2nc(SCC(=O)Nc3ccc(C)c(Cl)c3)[nH]c(=O)c2C1 -11%
CCn1c(=O)c2cc(C(=O)NCCc3cccc(C)c3)sc2c2ccccc21 2.01%
COc1ccccc1OCCn1c(NC(=O)c2ccccc2)nc2ccccc21 6.93%
Cc1ccc(NC(=O)C2CCN(c3ncccn3)CC2)cc1F -2.97%
CCc1cc2cc(OC)c(OC)cc2c(Cc2ccccc2)n1 -1.27%
CCOc1ccccc1NC(=O)C(C)n1nnc2sc3c(c2c1=O)CCCC3 (configuration not stated) 4.28%
O=C(O)CNC(=O)CNC(=O)CNC(=O)CSC(=O)c1ccccc1 -0.736%
CC1(C)S[C@@H]2[C@H](N=CN3CCCCCC3)C(=O)N2[C@H]1C(=O)O -0.401%
Cc1ccc(CCNC(=O)c2ccc(Cn3c(=O)c4cccn4c4cccnc43)cc2)cc1 -16.5%
Cc1ccc(-n2c(SCC(N)=O)nc3c(oc4ccccc43)c2=O)cc1 -29.9%
CCn1c(CNC(=O)C23CC4CC(CC(C4)C2)C3)nnc1SCC(=O)Nc1ccc(OC)cc1 -16.3%
O=C(O)c1cccc(NC(=O)c2cccc(S(=O)(=O)Nc3cccc(F)c3)c2)c1 0.256%
Cc1ccc(N2CCN(c3nc4ccccc4n4nnnc34)CC2)c(C)c1 16%
COc1cccc(C(=O)Nc2ccccc2SCc2cc(=O)c3cccc(C)c3[nH]2)c1 5.48%
Cc1cc(C)cc(NC(=O)c2cc(S(=O)(=O)N3CCOCC3)cn2C)c1 -2.02%
Cc1ccc(Cl)cc1N1CCN(C(=O)c2cnn(-c3ccc(Cl)cc3)c2C2CCNCC2)CC1 -23.1%
N#Cc1c[nH]n2c(NC3CCCC3)c(-c3ccc(Br)cc3)nc12 -28.6%
CCOc1ccc(C2c3c(oc4ccccc4c3=O)C(=O)N2Cc2ccc3c(c2)OCO3)cc1 (configuration not stated) -7.71%
Cc1ccc(Nc2c(-c3ccc(N4CCOCC4)cc3)nc3ccc(Cl)cn23)cc1 7.65%
Cc1cc2c(cc1S(=O)(=O)N1CCC(C(N)=O)CC1)OCC(=O)N2 6.56%
Cc1cc(C)c(NC(=O)Cn2nnc(-c3nc(-c4ccncc4)no3)c2N)c(C)c1 -0.941%
O=C(CSc1nc2c([nH]c3ccccc32)c(=O)n1-c1cccc(C(F)(F)F)c1)N1CCCC1 -10.9%
CCOC(=O)c1cccc(NC(=O)C2(S(=O)(=O)c3ccc(C)cc3)CC2)c1 -0.7%
COc1cn(CC(=O)Nc2ccc(C)cc2C)c(CN2CCCCC2)cc1=O -19.8%
COc1cccc(C(=O)Nc2ccc(-c3nc4ccc(C)cc4s3)cc2)c1OC 1.46%
CCOc1cccc(C2c3c(oc4ccc(F)cc4c3=O)C(=O)N2CCOC)c1 (configuration not stated) -1%
CCCNC(=O)C1CCC(Cn2c(=O)c3sccc3n(CC(=O)N3CCCC(C)C3)c2=O)CC1 (configuration not stated) 7.24%
CC(=O)C1=C(c2ccc(C)cc2)N(C(C)=O)n2c(nnc2-c2ccccc2)S1 -10.3%
